Variants at the background level are over-represented here. A value given as a limit tells only on which side of the number the result lay.

First the molecules themselves.
B1: tRNA (parent)
chain: CUCUCGGUAGCCAAGUUGGUUUAAGGCGCAAGACUUUAAUUUAUCACUACGAAAUCUUGAGAUCGGGCGUUCGACUCGCCCCCGGGAGAUUUUUUCCUCGAGCAA

Variants of B1 are the subject of the data set. Briefly: nonsense suppression (GFP-seq) (ratio to wild type); higher = more function; SUP4oc tRNA, yeast GFP reporter sort-seq. In outline:
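To measure nonsense suppression, tRNA variants from a library carrying ~3% random mutations were integrated into the yeast genome alongside RFP and a GFP ochre reporter under galactose control. Growth took place in raffinose/galactose medium supplemented with 80 mg/L adenine, followed by sorting into GFP/RFP bins and Illumina sequencing of each bin (phred ≥30). For each variant with ≥100 reads and ≥30 cells, the bin median GFP/RFP values were weighted by its estimated cell share per bin and referenced to the unmutated parent tRNA.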
On to G59U A62U, for which the nonsense suppression is no more than 0.026.

With A30G A74U, the nonsense suppression stood at 0.028.

As for C1U C5U U22C U63C, the nonsense suppression was no more than 0.026.

Regarding A54C U63C U71A, the nonsense suppression was no more than 0.026.

For C72U U76A G84U, the nonsense suppression was no more than 0.026.

Consider C64A A89G, for which the nonsense suppression is no more than 0.026.

Consider G26C A33G C77G G86U, for which the nonsense suppression is no more than 0.026.

C3G C56A C81A: the nonsense suppression was no more than 0.026.

For G59C C68A G88U A89C, the nonsense suppression is no more than 0.026.

Take A62U G73U A74U: the nonsense suppression is no more than 0.026.

In the case of U2C C11G C83U, the nonsense suppression is no more than 0.026.

Take C1G U22G A30U G59A G86U: the nonsense suppression is no more than 0.026.

As to C64G G84A G85A, the nonsense suppression is no more than 0.026.

Take C3G G67A G84A: the nonsense suppression is no more than 0.026.

Consider G32A C34G, for which the nonsense suppression was no more than 0.026.

Take U2A U20C U21A C79G G88C: the nonsense suppression was no more than 0.026.

G10U C29U A54C U70C: the nonsense suppression is no more than 0.026.

With C3G C82A, the nonsense suppression was no more than 0.026.

C11A G85A: the nonsense suppression was no more than 0.026.

As to G10C C68G U71C, the nonsense suppression is no more than 0.026.

For the variant U22C G65C, the nonsense suppression was no more than 0.026.

G6U A9G A24C G66A U70C: the nonsense suppression was no more than 0.026.

For the variant G18A A23U, the nonsense suppression was no more than 0.026.

On to C29U G59C A60U A74U, for which the nonsense suppression is no more than 0.026.

U4C G66U G67C: the nonsense suppression was no more than 0.026.

With C3U U22C A87C, the nonsense suppression was no more than 0.026.

U17G A33G A60U A74U: the nonsense suppression was no more than 0.026.

With G32U C77A, the nonsense suppression was no more than 0.026.

Turning to U55G C75U, the nonsense suppression is no more than 0.026.

For the variant C1A A31U C80A, the nonsense suppression was no more than 0.026.

Consider U57A A74U, for which the nonsense suppression was no more than 0.026.

C5A C29G U55A G65A: the nonsense suppression was no more than 0.026.

Consider U2A C72U, for which the nonsense suppression is no more than 0.026.

As to G66A G86C G88A, the nonsense suppression was no more than 0.026.

Turning to G28U C80G, the nonsense suppression was no more than 0.026.

For the variant G66C G85U, the nonsense suppression is no more than 0.026.

In the case of A30G C34A U63C G65U, the nonsense suppression is no more than 0.026.

On to U22C G28A C34U U55G, for which the nonsense suppression was no more than 0.026.

In the case of A9U A24U A89C, the nonsense suppression was no more than 0.026.

For the variant C27U G28U A74C C79G G86U, the nonsense suppression is no more than 0.026.

As to G67A G84U, the nonsense suppression worked out at 0.0504.

On to G59C G88C, for which the nonsense suppression is no more than 0.026.

In the case of G26U U63A C83A, the nonsense suppression was no more than 0.026.

For the variant G26U A33C C34A G59C, the nonsense suppression was no more than 0.026.

With G7U G61A, the nonsense suppression is no more than 0.026.

As for A13C A62C C81A, the nonsense suppression is no more than 0.026.

Take G6U A14G A33C C56U: the nonsense suppression is no more than 0.026.

In the case of G10U G18U U58G A87U, the nonsense suppression was no more than 0.026.

C27G G59A: the nonsense suppression was no more than 0.026.

As to C12G U55A U71C C81A G85U G88C, the nonsense suppression was no more than 0.026.

Consider A9U G10C C75G G85A A87C, for which the nonsense suppression was no more than 0.026.

For the variant U2A A30U, the nonsense suppression is 0.031.

With U8A G73C, the nonsense suppression is no more than 0.026.

Turning to C3G G25U C64A, the nonsense suppression is no more than 0.026.

With U4C U22C C56A C79A A87U A89C, the nonsense suppression was no more than 0.026.

Take A9U A23G: the nonsense suppression is no more than 0.026.

Take G26C A62C: the nonsense suppression is no more than 0.026.

In the case of C29U G61C G85C, the nonsense suppression was no more than 0.026.

Turning to G6U C27U C34A, the nonsense suppression is no more than 0.026.

Regarding C27U C82G, the nonsense suppression was no more than 0.026.

On to A13G U21G, for which the nonsense suppression came out at 0.026.

As for G6U C12A C29U G59A A62U U63G C80A, the nonsense suppression was no more than 0.026.

Turning to C56G G61U G67A, the nonsense suppression was no more than 0.026.

G26U U58G: the nonsense suppression is no more than 0.026.

As to G61U A62U C72A, the nonsense suppression is no more than 0.026.

As for C3G U16C U71C, the nonsense suppression was no more than 0.026.

In the case of G6U U16A U17G C77A, the nonsense suppression is no more than 0.026.

As for C5U U70C, the nonsense suppression was no more than 0.026.

Take G15A G26C A33U U57A: the nonsense suppression was no more than 0.026.

Take G18U G25A: the nonsense suppression is no more than 0.026.

Take U17G U20G G65A G67U: the nonsense suppression is no more than 0.026.

With G84A G86A, the nonsense suppression is no more than 0.026.

Take U22A A30U: the nonsense suppression was 0.177.

For the variant C27G G61C G85C, the nonsense suppression is no more than 0.026.

For the variant U17G G28A C64G, the nonsense suppression was no more than 0.026.

Regarding G10C G32U U63G, the nonsense suppression was no more than 0.026.

Take U35G U57A: the nonsense suppression was no more than 0.026.

As for G7U A14G G78A, the nonsense suppression was no more than 0.026.

As for C12A A54U, the nonsense suppression was no more than 0.026.

For G6C U35G C56G G65A, the nonsense suppression was no more than 0.026.

Take U4G G19C U22G G66C A89C: the nonsense suppression was no more than 0.026.

Consider U2A C27A, for which the nonsense suppression was no more than 0.026.

As to G6A U20A A30C G88A, the nonsense suppression was no more than 0.026.

Turning to U4A U17A G61C, the nonsense suppression is no more than 0.026.

With A13C U55G C68U, the nonsense suppression was no more than 0.026.

For the variant G19U U57G, the nonsense suppression was no more than 0.026.

For the variant C3A C27A C81A, the nonsense suppression is no more than 0.026.

In the case of C11A G18U U57C G61U, the nonsense suppression was no more than 0.026.

On to C3U A33G, for which the nonsense suppression was no more than 0.026.

In the case of A13C G18C U35G U70C, the nonsense suppression is no more than 0.026.

For the variant U4C C72A, the nonsense suppression was no more than 0.026.

For the variant U8G G32U U55A A87G, the nonsense suppression is no more than 0.026.

As to C3U A24C C81G, the nonsense suppression was no more than 0.026.

A30U C72G: the nonsense suppression was no more than 0.026.

For the variant U4C G10A C34A G65A U70C, the nonsense suppression was no more than 0.026.

Take C11A G26A G88U: the nonsense suppression was no more than 0.026.

On to G28C C34U G66A U70G, for which the nonsense suppression was no more than 0.026.

In the case of G61C C64U C68G G84A, the nonsense suppression is no more than 0.026.

For the variant G15A G26A, the nonsense suppression was no more than 0.026.

On to G10C G28A U70A C77U, for which the nonsense suppression was no more than 0.026.

Take A14G C64A: the nonsense suppression was no more than 0.026.

In the case of G19A A24G, the nonsense suppression was no more than 0.026.

For G73C U76C, the nonsense suppression is no more than 0.026.

For C34G U55A G59A A62U G67C, the nonsense suppression was no more than 0.026.

In the case of U2G C27A A87U, the nonsense suppression is no more than 0.026.

As to U2G C34G, the nonsense suppression was no more than 0.026.

As to G61A C80U, the nonsense suppression was 0.232.

With C3U A24G C29U G85U A87G, the nonsense suppression is no more than 0.026.

U4C U21A A31C G65A G73C C81U: the nonsense suppression is no more than 0.026.

For the variant G19C U55G, the nonsense suppression was no more than 0.026.

Take G32U U63A C79A: the nonsense suppression is no more than 0.026.

As for U21A G61U, the nonsense suppression turned out to be 0.791.

In the case of U71C G73C, the nonsense suppression was no more than 0.026.

As to U35G U71G U76G, the nonsense suppression was no more than 0.026.

Take A30C A62U: the nonsense suppression is no more than 0.026.

As to A9G A30G G65C, the nonsense suppression is no more than 0.026.

Take C5U G28C A30U C34A C72A: the nonsense suppression was no more than 0.026.

With C64U G73A A89G, the nonsense suppression is no more than 0.026.

As for A9G G86A, the nonsense suppression is no more than 0.026.

Take U21C U35A C79U: the nonsense suppression was no more than 0.026.

On to U8G G32C A54C, for which the nonsense suppression was no more than 0.026.

For A14U G26A G28U C29U U57A A74C, the nonsense suppression is no more than 0.026.

For G19A U63A, the nonsense suppression is no more than 0.026.

Consider C5A G7A U20G C80A, for which the nonsense suppression was no more than 0.026.

For the variant G7U A33G A60G C72U, the nonsense suppression is no more than 0.026.

As for A24C G25U C82G, the nonsense suppression is no more than 0.026.

On to G73C A74U, for which the nonsense suppression was no more than 0.026.

In the case of G6U A13U G78U, the nonsense suppression is no more than 0.026.

For the variant A33G U58A A87G, the nonsense suppression is no more than 0.026.

As to C12U A13G A30U U71G, the nonsense suppression is no more than 0.026.

On to A23G C72G, for which the nonsense suppression was no more than 0.026.

For C1U G7A A89U, the nonsense suppression is no more than 0.026.

As to C34U G88A, the nonsense suppression was no more than 0.026.

As for U55G C72U G86A, the nonsense suppression was no more than 0.026.

Turning to G18A G86C, the nonsense suppression is no more than 0.026.

G19C U70C: the nonsense suppression was no more than 0.026.

Consider A9G U20G G28C U35G, for which the nonsense suppression was no more than 0.026.

With A33G U58A C64G G69C G78C, the nonsense suppression was no more than 0.026.

On to G10U U17A U21C C75A, for which the nonsense suppression is no more than 0.026.

Take C29U U57A G65U: the nonsense suppression is no more than 0.026.

Regarding G26A C27U A31G G65C G66C G73A G78C A87C, the nonsense suppression was no more than 0.026.

As for A9U G61C, the nonsense suppression is 0.197.

Consider A23U A30C, for which the nonsense suppression was no more than 0.026.

Take U8C U16C A23C U71G G73A: the nonsense suppression is no more than 0.026.

In the case of A33G G66C G88A, the nonsense suppression was no more than 0.026.

For C1U U16C A31G U71G A74C, the nonsense suppression is no more than 0.026.

Turning to C5U A14G U57A G78A, the nonsense suppression is no more than 0.026.

For A33C C68A A89U, the nonsense suppression is no more than 0.026.

For the variant G10C U21A G73C, the nonsense suppression is no more than 0.026.

On to U21C A33C C81G, for which the nonsense suppression was no more than 0.026.

As to U22C A24U C29U A30G, the nonsense suppression amounted to 0.0731.

In the case of A9C A14G G19U G88A, the nonsense suppression was no more than 0.026.

For G18C U35C U70A C82U, the nonsense suppression is no more than 0.026.

As for A74U C80A, the nonsense suppression is no more than 0.026.

U2G G32A G86U: the nonsense suppression was no more than 0.026.

For U17C U22A, the nonsense suppression stood at 0.758.

On to C12U C72U, for which the nonsense suppression was no more than 0.026.

In the case of G19U G32A G61U, the nonsense suppression was no more than 0.026.

U58G G86U: the nonsense suppression was no more than 0.026.

As for C56A U57G G65C, the nonsense suppression is no more than 0.026.

These data come from the RNAGym collection of RNA variant scans (doi:10.1101/gad.245936.114).
